Self-cleavage data for 167 variants are collected here from the RNAGym collection of RNA variant scans (doi:10.1093/nar/gkz1192).

The source gives no read counts; variants with many changes may rest on few reads.

The labels stand for the following.
B1: CPEB3 Ribozyme (parent)
chain: UAACAGGGGGCCACAGCAGAAGCGUUCACGUCGCAGCCCCUGUCAGAUUCUGGUGAAUCUGCGAAUUCUGCUGUAUAUCUC

In this series the parent is B1. Description: self-cleavage, relative activity (ratio to wild type); higher = more cleavage; in vitro, sequencing. A digest of the protocol:
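Libraries of CPEB3 self-cleaving ribozyme mutants came from rounds of error-prone PCR and carried barcodes, which DNA sequencing matched to variants. In vitro transcription used T7 RNA polymerase at 37°C for 5 hours, with a further 15 min in DNase I before EDTA stopped the reaction; the ribozymes cleaved during both steps. The RNA was reverse transcribed with template switching and sequenced on Illumina. Relative activity is the cleaved/total read fraction of a variant divided by that of the unmutated ribozyme, averaged over three batches with at least 5 reads.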
Consider A3U A20G U25C U48C U54C U60G U67A, for which the self-cleavage amounted to 0.
The result for A3G U26C U54C reads 0.42; that for A3G U31C U74A A75G, 0.91.
In the case of A3U A45C U49C G52C A56G it was 0.38; in that of A3U A20U G36U U43C U51C U69G, 0.05.
As for A3G G7C C23G U25C U54G A77G U80G, the self-cleavage worked out at 0.05.
In the case of A3G U41G U54C U67C it was 0.16.
For the variant A3U A13G A65G U80C, the self-cleavage turned out to be 0.47.
As to A3G U31C U60A, the self-cleavage was determined as 0.38.
Turning to A3G G24A U26A U54C G73A, the self-cleavage is 0.12.
Regarding A3U C12U A15U G22U C39G U60C, the self-cleavage came to 0.1.
Regarding A3U C12G A15U A20U U31C A45U, the self-cleavage stood at 0.07.
Turning to A3G U72A A77G, the self-cleavage was 0.8.
The result for A3G U41C U60A A65G A77U reads 0.45; that for A3G C39U A56G U74C, 0.46.
As to A3G G24U U31A U43C A45G U49C U54C, the self-cleavage came out at 0.13.
Consider A3U C17G U26C U51C, for which the self-cleavage was determined as 0.36.
As for A3U A13G A18U U41A U58C, the self-cleavage came to 0.61.
The result for A3G U25C U41C A64U reads 0.38; that for A3G U25G A65G U80A, 0.18.
For the variant A3G G10A U26C U51A U60C, the self-cleavage was found to be 0.25.
Regarding A3G G36C A57C U60C, the self-cleavage turned out to be 0.19.
Take A3G G9A A28G A56G A65G: the self-cleavage came out at 0.1.
In the case of A3G U41C A57G it was 1.03; in that of A3G U43A U48C A57G, 1.02.
Take A3G U43A G46U U51G A75U: the self-cleavage was 0.26.
Turning to A3G U25C G63U, the self-cleavage turned out to be 0.56.
For A3G C11G A35G U49A U60A, the self-cleavage came to 0.3.
With A3G U25C A64U, the self-cleavage was determined as 0.18.
Turning to A3G U60A U67C U78G, the self-cleavage was 0.21.
Consider A3U A35G U69C C81A, for which the self-cleavage was found to be 1.04.
Regarding A3G G7U A20G A28U G70U, the self-cleavage stood at 0.29.
For the variant A3U A20U A35U U41A, the self-cleavage was found to be 0.37.
The result for A3G G16C G63C reads 0.41; that for A3G G8A G30A, 0.27; that for A3G A64G U74C U78A, 1.1.
For the variant A3G G6A A21U C32U U72A U80A, the self-cleavage amounted to 0.37.
Turning to A3G U26C A28U U69A, the self-cleavage came out at 0.28.
With A3U A47U U69C, the self-cleavage was found to be 0.2.
Take A3G U78C C79G: the self-cleavage worked out at 1.16.
The result for A3U A15G A45U A64G A65G reads 0.15; that for A3U A5G U43A, 0.82.
For A3G C34A C40U U51C U54C U76A, the self-cleavage amounted to 0.1.
For the variant A3G U31C U54C, the self-cleavage is 0.9.
As to A3G U51A A56G A64U U69A, the self-cleavage turned out to be 0.16.
On to A3G G7U A64G U80A, for which the self-cleavage came to 0.47.
As for A3U A20U G24A A28U U51G A64G, the self-cleavage turned out to be 0.07.
As to A3G G24A A65G, the self-cleavage worked out at 0.29.
As to A3G A45G A64G, the self-cleavage came out at 0.77.
On to A3G C4A G24A U54A A64G U76C, for which the self-cleavage was determined as 0.24.
In the case of A3U A13G U51G A64G A75G, the self-cleavage came to 0.74.
As for A3G A35U U66C, the self-cleavage amounted to 0.26.
With A3G C27A U43C, the self-cleavage amounted to 0.5.
As to A3U C11U A15G A35U U48A U67A A75U, the self-cleavage came to 0.05.
In the case of A3G U48C U51A it was 0.27.
In the case of A3G C11G U58C U74A it was 0.15; in that of A3G U41C U43A A45G A65G U74A U78C, 0.11; in that of A3U A13G U25C, 0.54.
In the case of A3G G10A A15G A20G C50A A64G it was 0.12; in that of A3G G33U U49C, 0.24; in that of A3G C17U U54A U74C, 0.8.
In the case of A3G G24A A56C, the self-cleavage was 0.1.
On to A3G C29U A64U A65G, for which the self-cleavage was found to be 0.35.
The result for A3G U60A C79U reads 0.79.
As for A3U A28C A35G U51A G73A U78C, the self-cleavage is 1.32.
For the variant A3G U25C U54A U72A U80C, the self-cleavage was found to be 0.15.
Take A3G U26C G55C: the self-cleavage is 0.47.
In the case of A3G G8A U25C G36U U58A C62U it was 0.06; in that of A3U C12G U49C G52A U66C, 0.25.
The result for A3G U41G U49C U67C reads 0.24.
Take A3G G8A U60A: the self-cleavage was 0.37.
On to A3G U25C U58A C71G, for which the self-cleavage was found to be 0.13.
The result for A3G U31C U58C reads 0.47; that for A3G U31C U58A, 0.45.
In the case of A3U A20C U49C U76A it was 0.09; in that of A3G C23G A45G, 0.5; in that of A3G G10C A28G U41A G55U U58C U60A, 0.08.
Regarding A3G G19C G30U A64G, the self-cleavage was determined as 0.08.
Take A3G G9U A35U U74C: the self-cleavage worked out at 0.52.
In the case of A3U A18U U78C it was 0; in that of A3U A15U U25C C29G A45G U78A, 0.07.
Consider A3G U51A A75G, for which the self-cleavage stood at 0.65.
The result for A3U A5U C62A A64U reads 0.36; that for A3G A56G U58C A75G, 0.4.
Take A3G U26C A35U A64G C68A U69G: the self-cleavage worked out at 0.3.
As for A3G G63A U72C, the self-cleavage is 0.53.
With A3G G6U A56G, the self-cleavage worked out at 0.24.
With A3G G10A C37U A45G U72A, the self-cleavage amounted to 0.28.
In the case of A3U A5U G7U A35U it was 0.3; in that of A3G G52C U60C C71U, 0.64.
With A3G U31A C50G A57G A65U, the self-cleavage was 0.22.
As to A3U A28G G46U U54G, the self-cleavage was found to be 0.07.
The result for A3G U25A C34U A45G U67A C68U U72A reads 0.
As to A3G U76G A77G, the self-cleavage was 0.62.
The result for A3G U58A U78A reads 0.47.
On to A3U A20G A45G A47G U51C U69C, for which the self-cleavage came out at 0.21.
As to A3G U41A U76C, the self-cleavage was 0.63.
For A3G C11G U25C U72C, the self-cleavage came to 0.4.
In the case of A3U A35U A47U U69A, the self-cleavage was determined as 0.21.
Consider A3G U31A C38U U69G, for which the self-cleavage was 0.08.
Take A3U A18G U41C U66C U67A U80C: the self-cleavage is 0.24.
Consider A3G U51C A75G, for which the self-cleavage turned out to be 0.98.
On to A3G U31C U41A G53U, for which the self-cleavage turned out to be 0.47.
Take A3G U48C A56G U80C: the self-cleavage is 0.41.
As for A3G G10A U25C A28U U60A C68A C71U, the self-cleavage is 0.05.
Take A3U A13U U60A U72C: the self-cleavage stood at 0.69.
A3G U51C U60C: the self-cleavage was 0.33.
With A3G C23U A56G, the self-cleavage is 0.43.
Take A3U C11A U31A A45U U72C: the self-cleavage worked out at 0.09.
Regarding A3U A21G U31C U51A A64U, the self-cleavage worked out at 0.14.
The result for A3G C23U A28U A65C reads 0.09.
As for A3U C11A A15U A18U C62G U66C U67C, the self-cleavage was found to be 0.04.
A3G A45U A65G U78G: the self-cleavage stood at 0.31.
In the case of A3U C12U U26A G30C C50U G63U A64G, the self-cleavage came out at 0.08.
On to A3G C11G U26A A28U U54C, for which the self-cleavage was 0.14.
In the case of A3U A45C G70A it was 0.16; in that of A3U A35U U51C U76C, 0.78; in that of A3G G8A G30A A56U A57G U72C, 0.09.
On to A3G G6A A18U U67C, for which the self-cleavage came to 0.28.
Consider A3G C29A U49A, for which the self-cleavage stood at 0.42.
Take A3G U41A A47U U80C: the self-cleavage amounted to 0.36.
A3G C4G G8C A21G U26C C79A: the self-cleavage was 0.78.
With A3G U26A U49C A77C, the self-cleavage amounted to 0.32.
For the variant A3G C14G U25C U60C, the self-cleavage was 0.47.
For A3G U54C U60A A64U, the self-cleavage came to 0.19.
Consider A3G G16C A28G U48C, for which the self-cleavage is 0.37.
For the variant A3G G6A A35G U78C, the self-cleavage stood at 0.59.
With A3G U25C U48G, the self-cleavage was determined as 0.62.
Turning to A3G U41A U48C U66C, the self-cleavage worked out at 0.1.
Regarding A3G U26A U60A A64G U74C, the self-cleavage was found to be 0.35.
On to A3U A15G A28G, for which the self-cleavage is 0.58.
As for A3G U25A U67C, the self-cleavage worked out at 0.32.
In the case of A3G G10C A20C U51A A56G, the self-cleavage is 0.52.
As for A3G C12U C79A, the self-cleavage came out at 1.17.
Regarding A3G U31A U41A U60C U67C U74C, the self-cleavage turned out to be 0.19.
In the case of A3G G46U A64G A65G it was 0.52.
For the variant A3G G8A U49C A57C A64G U74C, the self-cleavage came out at 0.06.
Turning to A3U C12U G30C A56U C62A U76A, the self-cleavage came out at 0.22.
The result for A3G C12U G19A C27U reads 0.09; that for A3G G8A A21G A57G C81U, 0.09.
The result for A3G C23G U41A U43C reads 0.41; that for A3U A13U U26C U78C, 0.96.
Consider A3G U25C G30A A45G U49A A65U U66C, for which the self-cleavage is 0.13.
A3G C27G A47G U60A C71G: the self-cleavage came to 0.06.
A3G A57G U78C: the self-cleavage came out at 0.82.
In the case of A3U A64G U66C, the self-cleavage was found to be 0.73.
Turning to A3G A57U U60C, the self-cleavage turned out to be 0.57.
As to A3G G9A C17U U60C, the self-cleavage was 0.1.
Take A3G U48C C81U: the self-cleavage was determined as 0.7.
Turning to A3G G8A A47C, the self-cleavage came to 0.06.
Take A3U A5U A35U U54C A75G: the self-cleavage was determined as 0.63.
Consider A3U A35G U43G U60A, for which the self-cleavage turned out to be 0.16.
Regarding A3U A45G U49C U51A, the self-cleavage was found to be 0.18.
In the case of A3G G7C U26C C32U U49A U58C U69C it was 0.06; in that of A3G C12A A35U G42A A45G U72A, 0.14; in that of A3G U41C U48C, 0.47.
As for A3G G10C A15U C23G U67C U74G, the self-cleavage was determined as 0.07.
With A3G U60A A64U, the self-cleavage turned out to be 0.25.
A3U C11G G19A A20G A64U U66A U72C: the self-cleavage amounted to 0.08.
A3G U31C U72A: the self-cleavage was determined as 1.11.
Take A3U A5G U72C C81A: the self-cleavage is 0.56.
Take A3U A13U A47G U74G U78A: the self-cleavage came out at 1.24.
In the case of A3G C39G U58G it was 0.14; in that of A3G C11A A18G U69C, 0.17.
A3G U60C U69C: the self-cleavage came to 0.44.
As for A3G G10A A35G, the self-cleavage was determined as 1.09.
As to A3U A18U A20U U49C, the self-cleavage was 0.12.
